# Source: article PMC8968644
# No constants are given. Whether binding was seen depends on the method and setting. In cells and extracts the contact can be indirect. Some binding calls cover weakened binding; strength is not graded here.
# T1: AGGF1-C1 (C-terminal deletion mutant 1 of AGGF1) (UniProt Q8N302)
# T1 sequence: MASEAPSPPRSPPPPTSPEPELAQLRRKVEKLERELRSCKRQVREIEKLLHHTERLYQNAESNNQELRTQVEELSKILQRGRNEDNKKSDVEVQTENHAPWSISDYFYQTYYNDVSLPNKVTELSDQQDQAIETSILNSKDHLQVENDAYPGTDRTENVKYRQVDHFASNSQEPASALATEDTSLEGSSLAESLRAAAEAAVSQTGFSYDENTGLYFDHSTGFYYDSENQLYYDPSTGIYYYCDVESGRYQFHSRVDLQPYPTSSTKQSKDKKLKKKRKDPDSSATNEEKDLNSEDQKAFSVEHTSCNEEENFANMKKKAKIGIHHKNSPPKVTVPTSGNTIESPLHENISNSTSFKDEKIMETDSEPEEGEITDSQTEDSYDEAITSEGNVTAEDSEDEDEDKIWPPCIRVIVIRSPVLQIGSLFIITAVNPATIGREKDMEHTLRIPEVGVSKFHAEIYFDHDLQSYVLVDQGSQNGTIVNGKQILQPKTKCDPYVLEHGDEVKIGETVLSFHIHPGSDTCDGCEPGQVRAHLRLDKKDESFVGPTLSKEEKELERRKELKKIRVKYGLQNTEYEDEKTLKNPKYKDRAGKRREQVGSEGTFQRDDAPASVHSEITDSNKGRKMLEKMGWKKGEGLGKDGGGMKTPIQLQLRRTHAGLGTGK
# T2: AGGF1-C2 (C-terminal deletion mutant 2 of AGGF1) (UniProt Q8N302)
# T2 sequence: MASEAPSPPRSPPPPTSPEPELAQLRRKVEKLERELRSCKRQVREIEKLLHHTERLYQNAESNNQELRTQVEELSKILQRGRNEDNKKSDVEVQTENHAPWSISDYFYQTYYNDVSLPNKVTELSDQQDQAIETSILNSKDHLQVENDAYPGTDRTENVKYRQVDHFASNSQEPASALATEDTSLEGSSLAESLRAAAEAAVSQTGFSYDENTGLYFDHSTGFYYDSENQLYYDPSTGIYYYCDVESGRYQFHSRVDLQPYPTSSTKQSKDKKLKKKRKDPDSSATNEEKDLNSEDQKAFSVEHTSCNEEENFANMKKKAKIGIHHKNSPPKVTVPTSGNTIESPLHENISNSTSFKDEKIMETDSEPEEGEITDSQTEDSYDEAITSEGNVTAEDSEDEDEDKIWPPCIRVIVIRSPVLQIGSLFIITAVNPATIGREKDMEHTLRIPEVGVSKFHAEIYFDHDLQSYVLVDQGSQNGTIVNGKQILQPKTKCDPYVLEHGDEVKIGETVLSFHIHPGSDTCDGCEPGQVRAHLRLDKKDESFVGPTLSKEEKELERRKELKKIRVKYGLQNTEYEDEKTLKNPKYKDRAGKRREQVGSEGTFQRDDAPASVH
# T3: AGGF1-C3 (C-terminal deletion mutant 3 of AGGF1) (UniProt Q8N302)
# T3 sequence: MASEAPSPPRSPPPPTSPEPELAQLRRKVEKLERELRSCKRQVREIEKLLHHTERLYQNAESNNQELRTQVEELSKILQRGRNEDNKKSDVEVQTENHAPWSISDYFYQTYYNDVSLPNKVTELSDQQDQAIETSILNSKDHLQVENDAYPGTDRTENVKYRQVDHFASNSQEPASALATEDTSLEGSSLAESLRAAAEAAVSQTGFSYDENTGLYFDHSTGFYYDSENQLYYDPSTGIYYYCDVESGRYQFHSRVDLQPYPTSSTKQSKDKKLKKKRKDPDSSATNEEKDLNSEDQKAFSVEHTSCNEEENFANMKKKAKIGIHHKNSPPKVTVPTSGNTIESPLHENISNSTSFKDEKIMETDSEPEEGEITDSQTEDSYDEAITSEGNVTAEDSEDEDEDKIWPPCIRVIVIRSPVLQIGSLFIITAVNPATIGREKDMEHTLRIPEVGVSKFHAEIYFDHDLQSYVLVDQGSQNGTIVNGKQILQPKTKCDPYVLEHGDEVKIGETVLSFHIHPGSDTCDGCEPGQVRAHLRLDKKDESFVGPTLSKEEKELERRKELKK
# T4: Angiogenic factor with G patch and FHA domains 1 (AGGF1), wild type (UniProt Q8N302)
# T4 sequence: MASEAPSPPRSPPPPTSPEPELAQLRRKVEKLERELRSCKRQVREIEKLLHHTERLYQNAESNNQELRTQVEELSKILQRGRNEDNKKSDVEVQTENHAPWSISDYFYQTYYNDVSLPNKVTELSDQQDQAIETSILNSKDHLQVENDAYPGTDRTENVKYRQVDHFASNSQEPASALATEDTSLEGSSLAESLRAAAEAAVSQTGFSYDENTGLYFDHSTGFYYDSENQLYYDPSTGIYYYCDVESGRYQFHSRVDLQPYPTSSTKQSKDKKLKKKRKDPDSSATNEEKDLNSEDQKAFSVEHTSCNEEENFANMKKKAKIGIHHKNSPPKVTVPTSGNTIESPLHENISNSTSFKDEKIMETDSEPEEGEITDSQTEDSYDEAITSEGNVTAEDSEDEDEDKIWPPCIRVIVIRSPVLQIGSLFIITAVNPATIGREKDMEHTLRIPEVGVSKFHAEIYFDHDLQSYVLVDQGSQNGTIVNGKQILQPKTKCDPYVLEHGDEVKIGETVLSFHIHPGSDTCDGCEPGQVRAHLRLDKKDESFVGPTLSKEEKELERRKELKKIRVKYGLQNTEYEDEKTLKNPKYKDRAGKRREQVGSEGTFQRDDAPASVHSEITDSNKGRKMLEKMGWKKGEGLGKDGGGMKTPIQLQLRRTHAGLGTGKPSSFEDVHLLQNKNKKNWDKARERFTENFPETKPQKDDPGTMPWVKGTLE
# B1: Integrin α7 (ITGA7) (receptor, UniProt Q13683 34-1181)
# chain: FNLDVMGALRKEGEPGSLFGFSVALHRQLQPRPQSWLLVGAPQALALPGQQANRTGGLFACPLSLEETDCYRVDIDQGADMQKESKENQWLGVSVRSQGPGGKIVTCAHRYEARQRVDQILETRDMIGRCFVLSQDLAIRDELDGGEWKFCEGRPQGHEQFGFCQQGTAAAFSPDSHYLLFGAPGTYNWKGTARVELCAQGSADLAHLDDGPYEAGGEKEQDPRLIPVPANSYFGLLFVTNIDSSDPDQLVYKTLDPADRLPGPAGDLALNSYLGFSIDSGKGLVRAEELSFVAGAPRANHKGAVVILRKDSASRLVPEVMLSGERLTSGFGYSLAVADLNSDGWPDLIVGAPYFFERQEELGGAVYVYLNQGGHWAGISPLRLCGSPDSMFGISLAVLGDLNQDGFPDIAVGAPFDGDGKVFIYHGSSLGVVAKPSQVLEGEAVGIKSFGYSLSGSLDMDGNQYPDLLVGSLADTAVLFRARPILHVSHEVSIAPRSIDLEQPNCAGGHSVCVDLRVCFSYIAVPSSYSPTVALDYVLDADTDRRLRGQVPRVTFLSRNLEEPKHQASGTVWLKHQHDRVCGDAMFQLQENVKDKLRAIVVTLSYSLQTPRLRRQAPGQGLPPVAPILNAHQPSTQRAEIHFLKQGCGEDKICQSNLQLVRARFCTRVSDTEFQPLPMDVDGTTALFALSGQPVIGLELMVTNLPSDPAQPQADGDDAHEAQLLVMLPDSLHYSGVRALDPAEKPLCLSNENASHVECELGNPMKRGAQVTFYLILSTSGISIETTELEVELLLATISEQELHPVSARARVFIELPLSIAGMAIPQQLFFSGVVRGERAMQSERDVGSKVKYEVTVSNQGQSLRTLGSAFLNIMWPHEIANGKWLLYPMQVELEGGQGPGQKGLCSPRPNILHLDVDSRDRRRRELEPPEQQEPGERQEPSMSWWPVSSAEKKKNITLDCARGTANCVVFSCPLYSFDRAAVLHVWGRLWNSTFLEEYSAVKSLEVIVRANITVKSSIKNLMLRDASTVIPVMVYLDPMAVVAEGVPWWVILLAVLAGLLVLALLVLLLWKMGFFKRAKHPEATVPQYHAVKIPREDRQQFKEEKTGTILRNNWGSPRREGPDAHPILAADGHPELGPDGHPGPGTA
# B2: Integrin α8 (ITGA8) (receptor, UniProt P53708 39-1063)
# chain: FNLDVEKLTVYSGPKGSYFGYAVDFHIPDARTASVLVGAPKANTSQPDIVEGGAVYYCPWPAEGSAQCRQIPFDTTNNRKIRVNGTKEPIEFKSNQWFGATVKAHKGKVVACAPLYHWRTLKPTPEKDPVGTCYVAIQNFSAYAEFSPCRNSNADPEGQGYCQAGFSLDFYKNGDLIVGGPGSFYWQGQVITASVADIIANYSFKDILRKLAGEKQTEVAPASYDDSYLGYSVAAGEFTGDSQQELVAGIPRGAQNFGYVSIINSTDMTFIQNFTGEQMASYFGYTVVVSDVNSDGLDDVLVGAPLFMEREFESNPREVGQIYLYLQVSSLLFRDPQILTGTETFGRFGSAMAHLGDLNQDGYNDIAIGVPFAGKDQRGKVLIYNGNKDGLNTKPSQVLQGVWASHAVPSGFGFTLRGDSDIDKNDYPDLIVGAFGTGKVAVYRARPVVTVDAQLLLHPMIINLENKTCQVPDSMTSAACFSLRVCASVTGQSIANTIVLMAEVQLDSLKQKGAIKRTLFLDNHQAHRVFPLVIKRQKSHQCQDFIVYLRDETEFRDKLSPINISLNYSLDESTFKEGLEVKPILNYYRENIVSEQAHILVDCGEDNLCVPDLKLSARPDKHQVIIGDENHLMLIINARNEGEGAYEAELFVMIPEEADYVGIERNNKGFRPLSCEYKMENVTRMVVCDLGNPMVSGTNYSLGLRFAVPRLEKTNMSINFDLQIRSSNKDNPDSNFVSLQINITAVAQVEIRGVSHPPQIVLPIHNWEPEEEPHKEEEVGPLVEHIYELHNIGPSTISDTILEVGWPFSARDEFLLYIFHIQTLGPLQCQPNPNINPQDIKPAASPEDTPELSAFLRNSTIPHLVRKRDVHVVEFHRQSPAKILNCTNIECLQISCAVGRLEGGESAVLKVRSRLWAHTFLQRKNDPYALASLVSFEVKKMPYTDQPAKLPEGSIVIKTSVIWATPNVSFSIPLWVIILAILLGLLVLAILTLALWKCGFFDRARPPQEDMTDREQLTNDKTPEA
# Key:
# Experiment in all cases: co-IP; HeLa cells cotransfected with the two expression plasmids for 48 h, lysed; lysate preabsorbed with Protein A/G PLUS-agarose; 1.5 μg immunoprecipitation antibody (anti-AGGF1; reciprocal with anti-integrin for the wild type) or anti-mouse IgG overnight at 4 °C; Western blot for the partner
# [1] = target: T1, AGGF1-C1 (C-terminal deletion mutant 1 of AGGF1)
# [2] = target: T2, AGGF1-C2 (C-terminal deletion mutant 2 of AGGF1)
# [3] = target: T3, AGGF1-C3 (C-terminal deletion mutant 3 of AGGF1)
# [4] = target: T4, Angiogenic factor with G patch and FHA domains 1 (AGGF1), wild type
binder,measurement,setting,value
B1,binding,[1],binds
same,binding,[2],binds
same,binding,[3],no binding
same,binding,[4],binds
B2,binding,[4],no binding
